# Data from patent US20080044411A1 (Janssen / Centocor, published 2008).
# T1: rat GLP-1 receptor expressed in INS-1E cells (rat, UniProt P32301 22-463)
# T1 sequence (looked up): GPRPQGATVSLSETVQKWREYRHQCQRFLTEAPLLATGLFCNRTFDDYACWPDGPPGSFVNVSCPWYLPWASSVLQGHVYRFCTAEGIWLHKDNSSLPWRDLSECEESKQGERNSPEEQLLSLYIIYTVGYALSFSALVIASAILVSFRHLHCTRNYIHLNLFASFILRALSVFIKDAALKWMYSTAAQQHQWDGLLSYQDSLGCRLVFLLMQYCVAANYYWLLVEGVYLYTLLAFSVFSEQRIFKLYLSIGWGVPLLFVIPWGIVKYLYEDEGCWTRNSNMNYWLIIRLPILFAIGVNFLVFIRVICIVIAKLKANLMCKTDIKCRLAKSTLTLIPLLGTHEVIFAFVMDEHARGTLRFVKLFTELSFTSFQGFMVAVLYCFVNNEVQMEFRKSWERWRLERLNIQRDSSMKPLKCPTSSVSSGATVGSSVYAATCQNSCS
# B1: GLP-1 MMB of SEQ ID NO:4 (Fc fusion)
# chain: HSEGTFTSDVSSYLEGQAAKEFIEWLVKGRGGGSGGGSGTLVTNSS[human IgG4 Fc with S228P F234A L235A (EU numbers) omitted]
# Molecular target: T1, rat GLP-1 receptor expressed in INS-1E …
# Assay: cell-based or functional assay
binder,measurement,value
B1,"LANCE cAMP assay in INS-1E cells, EC50",8.7 nM
